Test results from PubChem BioAssay (NCI).
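Tested at 5 concentrations; 48 h exposure; 96-well plates; endpoints linearly interpolated, else capped at highest concentration. Abbreviation: GI50, concentration required for 50% inhibition of growth. TGI is the concentration that stops growth completely.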

Tested on: NCI-H322M lung
Test: inhibition of tumour cell growth, NCI panel, 48 h

Row | SMILES | GI50 | TGI
1 | COc1ccc2[nH]cc(-c3cc(N)n4nc(-c5cn(C)c6ccccc56)cc4n3)c2c1 | 1.58 µM | 3.11 µM
2 | C#CCNC(=O)CCC(=O)OC[C@]12CC[C@@H](C(=C)C)[C@@H]1C1CC[C@@H]3[C@@]4(C)CCCNC(C)(C)[C@@H]4CC[C@@]3(C)[C@]1(C)CC2 (some centres undefined) | 9.59 µM | 18.1 µM
